# ± gives the standard deviation of the averaged measurements. This is one part of the list.
# Test system: PfAP2-LT AP2 domain (GST-tagged)
# Assay: gcPBM binding intensity (ln(normalized median fluorescence intensity)); higher = stronger DNA binding
# Outline: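 Each value is the highest Masliner-normalised natural-log median intensity across replicate spots of either orientation of a probe. The probes were primer-extended double-stranded 36-bp intergenic genomic sequences on an Agilent 4 × 180k array, alongside negative controls, exposed for 1 h to GST-tagged P. falciparum DNA-binding domains expressed in E. coli. Bound protein was picked up with Alexa488 anti-GST antibody and scanned at 488 nm.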
row,Sequence,gcPBM binding intensity (ln)
1,TACTACCACGGACATGCATGCACATTATTACTCTAA [TGCATGCA_site313],9.12 ± 0.43
2,TGAATAAATCAAAGCACACATACACCCACATATATA [CACACA_site286],9.47 ± 0.24
3,TGCTACATTTTATGTACACACATATACAGATATATA [CACACA_site4646],8.9 ± 0.4
4,ACATAATAAAAATAAATTCATAAGTAAATAAATAAA [TGCATGCA_negctrl_site186],8.68 ± 0.59
5,AATAATATTTAATACACACACCAGTTCTGCAAATTT [CACACA_site7712],9.25 ± 0.35
6,GAAAAAAGAAATTAAACATGCATCTGCAAATTTAAA [TGCATGCA_site974],8.6 ± 0.49
7,AATAGTAAAAGATATACACACACCAAAAAATATAAT [CACACA_site5293],9.47 ± 0.25
8,TTACACATGTTTAACTGTACACATAATAGCAATATT [XGTACX_site8545],8.88 ± 0.3
9,ACAATTATTTTGTTCTTTAATGGTAGGTTCTATGTC [CACACA_negctrl_site1419],8.76 ± 0.52
10,CATAAATTACTTTTTACACACTAAAATAAAATACAA [CACACA_site1135],8.67 ± 0.47
11,CTAAAAAATAGTAAAAGTACATAAATAATTTTGCTT [XGTACX_site8919],8.63 ± 0.53
12,TTATATATTTTTATGTGTACTTATATATATATATAT [XGTACX_site6211],8.98 ± 0.38
13,CACAAAGACACAAACACACACACACCCACATACATA [CACACA_site452],9.86 ± 0.24
14,ATTTCCCTATATAGAGCATGCACTATATTCAAATGA [TGCATGCA_site531],8.73 ± 0.26
15,TACTTATTTAAAATAGTGCATGAATAGAAGATATAT [GTGCAC_site9756],8.62 ± 0.39
16,AACAAAAACACTTTTACACACATAAGTAAAATATAT [CACACA_site1994],9.15 ± 0.4
17,AAAAAAAAATATAACAGTACATAAACATATGAATAT [XGTACX_site7093],8.96 ± 0.43
18,TCAACCAAAACATAAGCATGCAATATATTTTTATAC [TGCATGCA_site560],8.82 ± 0.41
19,TTTTATAATTTCTTCTGTACATATATATGAAAATAT [XGTACX_site74],8.54 ± 0.45

row,Sequence,gcPBM binding intensity (ln)
1,AAAAATAAACGACAGTGTACTAAATATTTAATTTTC [XGTACX_site3580],8.8 ± 0.59
2,TATTCTAAAGAAATTACACACATGCAATGAAAAAAA [CACACA_site6895],8.81 ± 0.45
3,CAGGGCAGGGGGAAGGGTACACATAAAAGAAAATAA [XGTACX_site172],9.02 ± 0.25
4,TATAAATATATATTTTGTACTTAATATAAATTTATA [XGTACX_site7996],8.38 ± 0.43
5,GGTTCATATCTTAACACACACATACATATTATAGAT [CACACA_site7392],9.33 ± 0.33
6,ATACAATTTATTTTAACACACGAATGAATTGATTAT [CACACA_site4160],8.73 ± 0.42
7,ATACAAATATACTTTTGTACGAAGAAATATATATAT [XGTACX_site3912],8.85 ± 0.43
8,ATAAAAAAAATAAAAAGTACAAAAAAAAAAAATGGA [XGTACX_site136],8.87 ± 0.73
9,TAAAGAAACTATTCAACACACGGTCTAATTATTACA [CACACA_site1064],8.71 ± 0.38
10,TATAAATATAGACACACACACACCAAAGCGTAGCGC [CACACA_site6179],9.77 ± 0.41
11,TATATATATTATAATACATGCGGTGATGAAAGTTAT [TGCATGCA_site924],9.07 ± 0.58
12,TATGAAGTACACAATACACACTAATTATATATAAAT [CACACA_site5444],9.11 ± 0.43
13,TTTTTAAAAAAACATACACACAAAAAAAAAAAAAAA [CACACA_site3935],8.59 ± 0.49
14,TATAATATATATATATTTATATATATCTTCCTAATC [GTGCAC_negctrl_site682],8.64 ± 0.49
15,TTTTTTTATATAGACACAAAAGAAAATTACATATAC [CACACA_negctrl_site235],8.24 ± 0.45
16,GATTTGTCTTACAGTGGTACACTTATATATATGTGA [XGTACX_site2899],8.9 ± 0.39
17,AATATTTATTTTATATGTACATAATTTATTTTTAAT [XGTACX_site776],8.73 ± 0.43
18,AAAAAAAAAAAAAAAACACACAAGGATCATATATAT [CACACA_site3812],8.95 ± 0.41
19,AATAAAAATATATCCACACACATATATATATCTGTA [CACACA_site4481],9.37 ± 0.31

row,Sequence,gcPBM binding intensity (ln)
1,TATATTATATTTTTATGTACATATATGTTTTTTTTT [XGTACX_site8239],8.93 ± 0.55
2,ATTTTATCAAGAGGAAGTACATTACCCCATGAAAAA [XGTACX_site8295],8.57 ± 0.32
3,AATGGAGTTTATAAGTATAAACGAGGGATACCTAAA [XGTACX_negctrl_site483],8.81 ± 0.45
4,AATATAAATAATAGTAGTACATATATATCTCAGAAA [XGTACX_site4055],8.84 ± 0.5
5,TAAATAAATTTATACACACACACACCCATATATATA [CACACA_site849],10.04 ± 0.035
6,AAAAAATCAAAACACACACACACACTAGAAAAAAAA [CACACA_site4909],10.1 ± 0.49
7,TTATGTTGTAAATGCACACATACATATACGCAGTTT [CACACA_site3015],9.02 ± 0.33
8,CAATTTTACTCATAAACACACATATAGATGTTATTA [CACACA_site7474],8.78 ± 0.38
9,TATATATATATATGATGTACATGAAAATTTCCAAAA [XGTACX_site5472],8.78 ± 0.47
10,TATATTTTTTAATTCACACAAAAATGAAAAATATTT [CACACA_site6001],8.28 ± 0.38
11,ATATCTGAAGTGTAAAGTACATATATATATTCATAT [XGTACX_site4612],8.85 ± 0.35
12,ATATATATATAATGTAGTACTATTTAATAATAAGCC [XGTACX_site1263],9.22 ± 0.4
13,ACCATATGTACATTTTTTTTTTTTTTTTTTTTTTTT [CACACA_negctrl_site1188],9.05 ± 0.15
14,ACATTCAAGCGTAATTGTACATACATATATATATAT [XGTACX_site8876],9.55 ± 0.3
15,TATTGTATCCTTAATGCATGCACCAAATAAAAAAAG [TGCATGCA_site541],8.69 ± 0.28
16,ATGTATATAAATAGTAGTACATTATTTCACACTGTA [XGTACX_site2061],8.88 ± 0.38
17,AAAAAAAAAAAAAAAGCACACACCAATGAGCAGCTT [CACACA_site1845],9.1 ± 0.2
18,CACACCCACAGACACACACACACATATATAATATAT [CACACA_site594],10.2 ± 0.54
